Source: PubChem BioAssay AID1347073 (National Center for Advancing Translational Sciences (NCATS), 2019)
Hit rate of the full screen: of about 45,000 compounds, about 200 (0.44%) were called active. About 7% were inconclusive and are not listed. The call rests on the fitted dose curve; in most records, active means well fitted activation curve with a large enough effect; inconclusive means small, poorly fitted or top-dose-only effect; inactive means no such curve, though single readings can be large or run the other way. The list shows a part of the results.

Experiment: qHTS of TDP-43 Inhibitors: NCGC Sytravon Library Screen; further: nearly all actives have a fitted effect of over 55% in size; on growth rescue (activation): 0% is about no effect
Details: yeast TDP-43 toxicity rescue, BacTiter-Glo growth, 24 h; series mostly up to 46.1 µM; growth rescue (activation): at the top concentration
Procedure, shortened: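 TDP-43-expressing yeast, pregrown in raffinose, seeded at OD600 0.02 in galactose medium with compound for 24 hr at 30 deg C. Growth read by BacTiter-Glo luminescence, so rescue of toxicity appears as activation.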
Potency means the concentration at half of the fitted maximal effect.

SMILES	growth rescue (activation)	Potency
COc1ccc(-c2csc(NC(=O)CSc3nc(C)nc4sc(C(=O)O)c(C)c34)n2)cc1	inactive: 3.48%	
Fc1cnc(N/N=C/c2ccc(-c3ccc(Br)cc3)o2)nc1N1CCOCC1	inactive: 8.76%	
COc1ccc(NC(=O)Cc2coc3cc(C)ccc23)cn1	inactive: 30.3%	
COc1cccc(CC(=O)OCC(=O)NCc2ccc3c(c2)OCO3)c1	inactive: -6.63%	
CCOC(=O)N1CCN(Cc2nc3cc([N+](=O)[O-])ccc3n2C)CC1	inactive: 4.89%	
O=C(CSc1nn(-c2ccc(F)cc2)c(=S)s1)NCC1CCCO1 (stereo unspecified)	inactive: -5.95%	
CCS(=O)(=O)N1Cc2ccccc2CC1C(=O)N(C)Cc1ccc(OC)cc1OC (stereo unspecified)	inactive: 0.402%	
CCN1C(=O)/C(=C/c2nc3ccccc3c(=O)[nH]2)c2ccccc21	inactive: -8.2%	
C/C(=N\NC(=O)c1c(C)nc2ccccn12)c1ccccc1F	inactive: -10.7%	
CCCCN(C(=O)CCC(=O)Nc1cc(C)on1)C(C(=O)NC1CCCC1)c1cccc(OC)c1 (stereo unspecified)	inactive: 0.546%	
O=C(NC1CC1)C(Cl)c1ccccc1 (stereo unspecified)	inactive: -0.0995%	
O=S(=O)(NN=C1CCCCC1)c1ccccc1	inactive: 2.6%	
Cc1ccc(C)c(CN2C(=O)c3ccccc3S(=O)(=O)c3ccc(C(=O)NCCCN4CCCC(C)C4)cc32)c1 (stereo unspecified)	inactive: 18%	
CCN(CC)S(=O)(=O)c1ccc2[nH]c(=O)cc(C(=O)NCc3ccccc3)c2c1	inactive: 8.05%	
O=C(O)c1ccccc1NCc1ccsc1	inactive: 15.6%	
CCCOc1ccc(-c2nc(C#N)c(N3CCN(CC)CC3)o2)cc1	inactive: 12.4%	
CC(C)OP(=O)(Nc1cccc2ccccc12)OC(C)C	inactive: 4.05%	
O=C(COC(=O)/C=C/c1ccccc1[N+](=O)[O-])NCc1ccco1	inactive: -4.11%	
CCOc1ccccc1-c1nc(CN(Cc2cnn(C)c2)C(C)C)c(C)o1	inactive: 14.2%	
CC(=O)c1cccc(N(C(=O)CNC(=O)c2cccs2)C(C(=O)NCC2CCCO2)c2ccccc2)c1 (stereo unspecified)	inactive: 12.1%	
COc1cccc(-c2nnc(NC(=O)c3cccs3)s2)c1	inactive: 11.2%	
CCCN(CCC)C(=O)c1cc2c(=O)[nH]c3ccc(C)cc3c2s1	inactive: 35.4%	

SMILES	growth rescue (activation)	Potency
CC(C)N1CCC1(C)C(=O)Nc1cccc2ccccc12 (stereo unspecified)	inactive: 10.3%	
CCOC(=O)C1CCN(CC(C)(C)NS(=O)(=O)c2ccccc2)CC1	inactive: 3.32%	
CCC(CC)NC(=O)CO/N=C/c1ccc(Cl)cc1Cl	inactive: 10.8%	
Cn1cc(CN2CCC(n3nccc3NC(=O)Cc3ccccc3)CC2)cn1	inactive: 0.757%	
CNS(=O)(=O)c1cccc(C(=O)OCC(=O)Nc2ccc(OC)cc2[N+](=O)[O-])c1	inactive: 22.7%	
CC12CCC(C(=O)N(CCCCN3CCN(Cc4ccccc4)CC3)C1=O)C2(C)C (stereo unspecified)	inactive: -15.8%	
COc1ccc(C(=O)NC(=S)N2CCN(c3ccccc3OC)CC2)cc1	inactive: 8.06%	
O=c1c2ccccc2c(-c2ccccc2)nn1-c1ccccn1	inactive: 3.73%	
Cc1ccc(NC(=O)COC(=O)Cn2nc(-c3ccc(F)cc3)oc2=O)cc1C	inactive: 4.33%	
CC(=O)Nc1c(C)ccc(CNC(=O)COc2ccc(F)cc2)c1C	inactive: 2.26%	
COc1ccc(NC(=O)CSc2nc(SC)ns2)cc1	inactive: 29.3%	
COc1ccc(SCC(=O)Nc2ccccc2Cl)cc1	inactive: 0.623%	
COc1ccc(Cc2[nH]n3c(=O)c(Cl)c(C)nc3c2-c2ccccc2)cc1	inactive: 10%	
O=C1N(c2ccc(Cl)cc2)C(c2ccc(Cl)cc2)N2CCCN12 (stereo unspecified)	inactive: 9.11%	
Cc1ccc(S(=O)(=O)NCc2cccnc2)cc1C(=O)N1CCCC1	inactive: -5.61%	
C=CCn1c(SCC(=O)c2[nH]c(C)c(C(=O)OCC)c2C)nc2scc(-c3ccccc3)c2c1=O	inactive: -16.6%	
CCOc1ccc(CN(C)Cc2cc(=O)oc3c(C)c(C)ccc23)cc1OC	inactive: -1.58%	
CC(C)/C(=N/Nc1ccccc1[N+](=O)[O-])c1ccccc1	inactive: 7.59%	
Cc1cccc(NC(=O)/C(C#N)=C\c2cn(CC(=O)O)c3ccccc23)c1	inactive: 13%	
COC(=O)[C@@H](NC(=O)CCc1nnc(-c2ccsc2)o1)C(C)C	inactive: 0.443%	
Cc1ccc(S(=O)(=O)N2CCC(N3CCN(C)CC3)CC2)cc1Cl	inactive: -9.62%	
CCN(CC)CC(O)Cn1c(C)c(-c2ccccc2)c2cc([N+](=O)[O-])ccc21 (stereo unspecified)	inactive: 18.4%	

SMILES	growth rescue (activation)	Potency
CN1/C(=C\C(=O)CSc2nnc(N)s2)C(C)(C)c2ccccc21	inactive: 11.7%	
COc1ccccc1NS(=O)(=O)c1cc(NC(=O)C2CCCO2)ccc1C (stereo unspecified)	inactive: -0.453%	
O=[N+]([O-])c1cnn(-c2nc(-c3cccs3)cc(C(F)(F)F)n2)c1	inactive: 2.6%	
COc1ccc(NC(=O)c2cccc3ccccc23)cc1	inactive: -4.68%	
O=[N+]([O-])c1ccccc1/C=N/NC1=NS(=O)(=O)c2ccccc21	inactive: -6.54%	
CS(=O)(=O)N1CCN(c2ccc(C(=O)NC34CC5CC(CC(C5)C3)C4)cc2[N+](=O)[O-])CC1	inactive: 12.4%	
CCc1sc(C(=O)NNC(=O)c2cncc(Br)c2)cc1C	inactive: 21.2%	
Cc1cccc(NC(=O)CN2C(=O)S/C(=C\c3ccc(-c4cccc(C(=O)O)c4C)o3)C2=O)c1	inactive: -5.96%	
COc1ccc(C(=O)COC(=O)CCN2C(=O)C3C4C=CC(C5CC45)C3C2=O)cc1 (stereo unspecified)	inactive: -15.6%	
Cc1ccc(NC(=O)C2C3C=CC4(O3)C2C(=O)N(CCCN2CCOCC2)C4C(=O)NC2CCCCC2)cc1Cl (stereo unspecified)	inactive: 2.73%	
COc1ccc(NC(=O)CC2C(=O)N(C)C(=S)N2Cc2ccco2)cc1 (stereo unspecified)	inactive: 5.93%	
Nc1c(C(=O)Nc2ccc(Cl)c(C(F)(F)F)c2)sc2nc(-c3ccncc3)ccc12	inactive: 8.45%	
CC(=O)Nc1cccc(C(=O)NC(C)c2ccc(-n3ccnc3)cc2)c1 (stereo unspecified)	inactive: -4.12%	
CCN(CC(=O)Nc1ccc(Br)cc1)CC(=O)Nc1cc(C)on1	inactive: 12.2%	
CC(C)CCn1c2ccccc2c2cc(CC(N)=O)ccc21	inactive: -22%	
COc1ccc(N(CC(=O)N2CCCCCC2)S(=O)(=O)c2ccc(OC)c(OC)c2)cc1	inactive: 1.89%	
Cc1cc2c(SCC(=O)NC3CCCC3)ncnc2s1	inactive: -0.775%	
COCc1ccc(C(=O)N2CCCC(N(C)Cc3ccccc3)C2)s1 (stereo unspecified)	inactive: -0.0032%	
CCOc1ccccc1NC(=S)N1CCC(NC(=O)C(C)(C)C)CC1	inactive: 6.61%	
CCC(C)[C@H](NC(=O)OC(C)(C)C)c1nnc(SCc2c(C)[nH]c(=O)[nH]c2=O)o1 (stereo partly specified)	inactive: -26.1%	
COc1ccc(C(=O)Cn2cnc3ccccc3c2=O)cc1OC	inactive: -40%	
CC(Oc1ccc(F)cc1)C(=O)NN (stereo unspecified)	inactive: 17.5%	

SMILES	growth rescue (activation)	Potency
Cc1ccc(OC(C)C(=O)Nc2ccccc2C(=O)NCc2cccnc2)cc1C (stereo unspecified)	inactive: 14.6%	
CN(C)c1ccc(-c2n[nH]c(=S)n2-c2ccccc2)cc1	inactive: 10.5%	
COc1ccc(CCNC(=O)CC(=O)NCCc2ccc(OC)cc2)cc1	inactive: 3.67%	
CC(=O)c1ccc(NC(=O)CC(NCCC2=CCCCC2)C(=O)O)cc1 (stereo unspecified)	inactive: -4.29%	
CCC(C(=O)NCC1CCCO1)N(C(=O)c1snc(C(N)=O)c1N)c1ccc(Cl)cc1 (stereo unspecified)	inactive: 8.56%	
Cc1ccc(S(=O)(=O)Oc2ccccc2N2C(=O)C3C4CCC(C4)C3C2=O)cc1 (stereo unspecified)	inactive: 22.9%	
COC(=O)c1ccc(N2CCN(S(=O)(=O)c3c(C)cc(C)cc3C)CC2)c([N+](=O)[O-])c1	inactive: 21.8%	
O=C(Cn1nc(C(=O)O)c2ccccc2c1=O)c1c[nH]c2ccccc12	inactive: -1.01%	
C=CCNC(=S)NN=C1CCC(c2ccccc2)CC1 (stereo unspecified)	inactive: 15.6%	
CN(CC(=O)N1CCN(c2ccccc2)CC1)C1CCCc2ccccc21 (stereo unspecified)	inactive: 10.1%	
CC(=O)c1ccc(N2CCN(CN3C(=O)CC4(CCCC4)C3=O)CC2)c(F)c1	inactive: 7%	
CCc1nc(Nc2cccc(F)c2)c2oc3ccccc3c2n1	inactive: 12.8%	
CN(C)C(CNC(=O)c1ccc(-c2ccccc2)cc1)c1ccccc1 (stereo unspecified)	inactive: 9.56%	
COc1ccc(OCC(O)Cn2c(Nc3ccccc3)nc3c2c(=O)n(C)c(=O)n3C)cc1 (stereo unspecified)	inactive: 25.1%	
COc1cccc(CN2CCNC(=O)C2CC(=O)NCCCC2CCCC2)c1OC (stereo unspecified)	inactive: 0.729%	
Fc1ccc(C(c2nnnn2Cc2cccs2)N2CCN(C3CCCC3)CC2)cc1 (stereo unspecified)	inactive: -24.1%	
COc1cccc(C(O)c2nc(-c3ccccc3C)cs2)c1 (stereo unspecified)		active: 11.2 µM
COc1ccc(S(=O)(=O)NC2CC2)cc1-n1cnnn1	inactive: -2.55%	
COc1ccccc1-c1cc(C(=O)NCCCN2CCOCC2)no1	inactive: 1.64%	
Cc1ccc[n+](-c2[nH]c(=O)sc2/C=N/NC(=O)c2ccccc2[O-])c1	inactive: -14.8%	
CCCCNC(=O)COC(=O)c1ccc(F)cc1Cl	inactive: 4.96%	
CN(Cc1ccccc1)C(=O)COC(=O)C1CCN(S(=O)(=O)c2cccs2)CC1	inactive: 5.85%	

SMILES	growth rescue (activation)	Potency
COCc1cc(C)nc(SCC(=O)Nc2ccc3[nH]c(=O)[nH]c3c2)c1C#N	inactive: -2.3%	
COc1cccc(OC)c1OCCNC(C)(C)C	inactive: 21.5%	
Brc1ccc(/C=N/Nc2ccccn2)cc1	inactive: 16.2%	
Cc1ccc(O)c(C2=Nc3ccccc3N=C(c3ccc([N+](=O)[O-])cc3)C2)c1	inactive: 6.92%	
Cc1ccc(C(=O)NNC(=O)c2ccc(S(=O)(=O)N3CCCCC3)cc2)cc1	inactive: -62.1%	
O=C(OCc1cc(=O)n2c(n1)sc1ccccc12)c1cccc(O)c1	inactive: 7.22%	
COc1ccc(-c2nn(-c3ccccc3C)cc2CNCCc2cnc[nH]2)cc1F	inactive: 6.54%	
Cc1ccc(-c2nnn(CC(=O)N(CCN3CCOCC3)C(C(=O)NC(C)(C)C)c3ccc(C)o3)n2)cc1 (stereo unspecified)	inactive: 19.8%	
CC1CCC(C(C)C)C(OC(=O)C[n+]2cc(-c3ccc(Cl)cc3)n3c2CCCCC3)C1 (stereo unspecified)	inactive: -1.8%	
OCCCNc1c2ccccc2nc2ccccc12	inactive: 10.4%	
O=C(NNS(=O)(=O)c1ccc(F)cc1)c1cc2ccccc2cc1O	inactive: 0.311%	
O=C(COC(=O)CNC(=O)c1ccccc1)NCCCc1ccccc1	inactive: 1.7%	
COc1ccc(Br)cc1/C=N/N1CCN(Cc2ccccc2)CC1	inactive: 3.91%	
CNc1nc(SCc2ccccc2Cl)nc2c1CCCC2	inactive: -93.2%	
CSc1ncccc1C(=O)Nc1nccs1	inactive: 9.39%	
COc1ccccc1N1CCN(S(=O)(=O)c2ccc3c(c2)oc(=O)n3C)CC1	inactive: 18.2%	
CCCC(=O)Nc1cccc(-c2nc3ccccc3c(=O)o2)c1	inactive: 4.83%	
O=c1[nH]oc(O)c1-c1ncc(C(F)(F)F)cc1Cl	inactive: -3.8%	
